Values marked as one replicate rest on one cluster of the flow cell; about a third of the high ones do not repeat.
These sequences were tested on ATP (assay: switch fluorescence ratio, 500 uM ATP over buffer (Cy3 cluster intensity, sum of 5 cycles each) (fold (ratio)); higher = stronger signal-on switching upon ATP binding; sequences stand for … in TCGTCGGCAGCGTCAGATGTGTATAAGAGACAGTTTTTTTTTTTTTTTTTTTTTTTTT…TC). Conditions: aptamer strand: ATP DNA aptamer (quencher-CACCTGGGGGAGTATTGCGGAGGAAGG + anchor), 100 nM annealed; ATP concentration: 500 uM; one replicate.
In short: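 Five buffer/ATP imaging cycles were run on Cy3-labelled switching-strand clusters on a modified Illumina MiSeq flow-cell, with NaOH stripping and re-annealing between cycles. In each cycle, clusters annealed to 100 nM quencher-labelled ATP aptamer were imaged in selection buffer, then after 15 min with 500 uM ATP at 22 °C. Per cluster, the fluorescence ratio is summed target-cycle over summed buffer-cycle Cy3 intensity, averaged per switch-domain sequence. Only clusters within 100-1000 RFU were kept.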
Sequence AACCTCTGAC has a switch fluorescence ratio of 1.78.
In the case of AACGAACTTA, the switch fluorescence ratio is reported as 1.34.
Sequence AACGACTGCT has a switch fluorescence ratio of 1.03.
For AACGAGCACA, the switch fluorescence ratio was 1.38.
AACGAGGCTG gave a switch fluorescence ratio of 1.5.
Work on AACGAGTGGA yielded a switch fluorescence ratio of 1.02.
AACGCATATC was tested, and the switch fluorescence ratio was 3.36.
Sequence AACGCCAGAA has a switch fluorescence ratio of 1.05.
Sequence AACGCCGCGA has a switch fluorescence ratio of 1.42.
In the case of AACGCCTCGT, the switch fluorescence ratio is reported as 1.01.
In the case of AACGCCTGCT, the switch fluorescence ratio is reported as 1.01.
AACGCGGGTA was tested, and the switch fluorescence ratio was 0.975.
With AACGCTACAT the switch fluorescence ratio was 1.47.
Work on AACGCTTAAT yielded a switch fluorescence ratio of 1.02.
For AACGGAGACC, the switch fluorescence ratio was 1.05.
AACGGAGCAT gave a switch fluorescence ratio of 3.76.
Work on AACGGAGGTG yielded a switch fluorescence ratio of 1.02.
AACGGATTCC showed a switch fluorescence ratio of 1.05.
AACGGCCTGG was tested, and the switch fluorescence ratio was 1.01.
For AACGGGAAAC, the switch fluorescence ratio was 1.05.
Work on AACGGGATTG yielded a switch fluorescence ratio of 0.99.
For AACGGGGGG, the switch fluorescence ratio was 0.956.
AACGGTAGAT was tested, and the switch fluorescence ratio was 1.02.
Sequence AACGTAAAAA has a switch fluorescence ratio of 1.14.
Work on AACGTAGTCA yielded a switch fluorescence ratio of 0.995.
With AACGTCGCGA the switch fluorescence ratio was 1.04.
AACGTCTCGG showed a switch fluorescence ratio of 1.
AACGTGAGCA was tested, and the switch fluorescence ratio was 1.05.
AACGTGGGAA showed a switch fluorescence ratio of 1.01.
Sequence AACGTGGTGG has a switch fluorescence ratio of 0.96.
With AACTACGTCC the switch fluorescence ratio was 1.14.
With AACTACTAAG the switch fluorescence ratio was 1.02.
In the case of AACTAGCAAG, the switch fluorescence ratio is reported as 1.07.
AACTCAACCT showed a switch fluorescence ratio of 1.76.
AACTCATGCG was tested, and the switch fluorescence ratio was 0.956.
AACTCCGGAG showed a switch fluorescence ratio of 0.976.
AACTCCGTTA gave a switch fluorescence ratio of 1.14.
In the case of AACTCGAGTG, the switch fluorescence ratio is reported as 0.982.
AACTCGATCG showed a switch fluorescence ratio of 0.97.
In the case of AACTCGGGAA, the switch fluorescence ratio is reported as 1.13.
With AACTCTTCGA the switch fluorescence ratio was 1.02.
AACTGAATTT was tested, and the switch fluorescence ratio was 0.994.
For AACTGACGTG, the switch fluorescence ratio was 1.09.
AACTGATACG showed a switch fluorescence ratio of 1.07.
Work on AACTGCACGG yielded a switch fluorescence ratio of 1.43.
AACTGCGCAT gave a switch fluorescence ratio of 1.63.
AACTGTGGCG was tested, and the switch fluorescence ratio was 0.967.
For AACTTACGA, the switch fluorescence ratio was 1.29.
AACTTAGTAA gave a switch fluorescence ratio of 1.04.
In the case of AACTTCATTC, the switch fluorescence ratio is reported as 1.02.
With AACTTGATTG the switch fluorescence ratio was 0.96.
For AACTTGGTCT, the switch fluorescence ratio was 0.992.
Sequence AACTTTAATG has a switch fluorescence ratio of 1.01.
AACTTTCTG gave a switch fluorescence ratio of 0.984.
Work on AACTTTTAGG yielded a switch fluorescence ratio of 1.02.
AACTTTTCGC was tested, and the switch fluorescence ratio was 1.04.
In the case of AAGAAAAGTA, the switch fluorescence ratio is reported as 1.03.
AAGAAATCCT showed a switch fluorescence ratio of 1.32.
In the case of AAGAAGGAGA, the switch fluorescence ratio is reported as 1.02.
In the case of AAGAAGTCGC, the switch fluorescence ratio is reported as 1.03.
AAGAATAGG showed a switch fluorescence ratio of 0.931.
For AAGAATCGCT, the switch fluorescence ratio was 0.953.
With AAGAATGAT the switch fluorescence ratio was 0.926.
Work on AAGAATTCG yielded a switch fluorescence ratio of 1.13.
For AAGACAATTT, the switch fluorescence ratio was 0.965.
AAGACCCGTC gave a switch fluorescence ratio of 0.898.
In the case of AAGACCGAGT, the switch fluorescence ratio is reported as 0.987.
AAGACCTAGT was tested, and the switch fluorescence ratio was 0.975.
Work on AAGACCTTGT yielded a switch fluorescence ratio of 1.05.
For AAGACGTGGG, the switch fluorescence ratio was 0.983.
With AAGAGAAGTA the switch fluorescence ratio was 1.07.
AAGAGAATTG gave a switch fluorescence ratio of 0.955.
In the case of AAGAGAGCGT, the switch fluorescence ratio is reported as 0.996.
AAGAGAGGTC gave a switch fluorescence ratio of 1.07.
For AAGAGATCTC, the switch fluorescence ratio was 1.01.
Work on AAGAGCCCAG yielded a switch fluorescence ratio of 1.06.
Work on AAGAGCTCG yielded a switch fluorescence ratio of 1.01.
Sequence AAGAGGAAGT has a switch fluorescence ratio of 0.995.
Sequence AAGAGGCGTT has a switch fluorescence ratio of 1.02.
AAGAGGGGCA gave a switch fluorescence ratio of 0.987.
AAGAGGTAA was tested, and the switch fluorescence ratio was 0.985.
AAGAGTTGCG gave a switch fluorescence ratio of 1.07.
For AAGAGTTGGG, the switch fluorescence ratio was 0.986.
Work on AAGAGTTTTG yielded a switch fluorescence ratio of 0.971.
For AAGATAAGCG, the switch fluorescence ratio was 1.05.
AAGATACATT gave a switch fluorescence ratio of 1.03.
AAGATATCA showed a switch fluorescence ratio of 0.985.
With AAGATATTGT the switch fluorescence ratio was 0.987.
Sequence AAGATCAGTG has a switch fluorescence ratio of 1.
AAGATCCCGT was tested, and the switch fluorescence ratio was 0.969.
Sequence AAGATGTCCA has a switch fluorescence ratio of 1.02.
AAGATTCTGA gave a switch fluorescence ratio of 1.05.
For AAGATTGTCT, the switch fluorescence ratio was 1.
For AAGATTTAAC, the switch fluorescence ratio was 0.998.
In the case of AAGATTTCC, the switch fluorescence ratio is reported as 1.02.
Sequence AAGCACAACT has a switch fluorescence ratio of 1.15.
AAGCACGCC was tested, and the switch fluorescence ratio was 1.2.
AAGCAGATTA was tested, and the switch fluorescence ratio was 1.02.
Sequence AAGCAGTATT has a switch fluorescence ratio of 0.99.
AAGCAGTGTC gave a switch fluorescence ratio of 0.931.
For AAGCATCCCG, the switch fluorescence ratio was 1.
With AAGCCAAATT the switch fluorescence ratio was 1.01.
Work on AAGCCAAGTG yielded a switch fluorescence ratio of 1.05.
For AAGCCCAGAG, the switch fluorescence ratio was 1.18.
With AAGCCCGCTA the switch fluorescence ratio was 1.06.
In the case of AAGCCTTCCA, the switch fluorescence ratio is reported as 1.88.
With AAGCGACAGC the switch fluorescence ratio was 1.04.
Work on AAGCGCAGGA yielded a switch fluorescence ratio of 1.02.
With AAGCGCGTAC the switch fluorescence ratio was 1.6.
AAGCGCTAAG gave a switch fluorescence ratio of 0.974.
For AAGCGGACTG, the switch fluorescence ratio was 0.999.
Work on AAGCGGAGTT yielded a switch fluorescence ratio of 1.05.
With AAGCGGTAGT the switch fluorescence ratio was 0.954.
With AAGCGTGCGG the switch fluorescence ratio was 1.01.
Sequence AAGCTAATCG has a switch fluorescence ratio of 0.989.
With AAGCTAGTA the switch fluorescence ratio was 1.03.
With AAGCTATGGA the switch fluorescence ratio was 1.
Sequence AAGCTCCCGG has a switch fluorescence ratio of 1.02.
In the case of AAGCTCCTTA, the switch fluorescence ratio is reported as 1.
AAGCTCTACA was tested, and the switch fluorescence ratio was 1.02.
Work on AAGCTCTCGC yielded a switch fluorescence ratio of 0.996.
With AAGCTGGATT the switch fluorescence ratio was 0.947.
Work on AAGCTTGGGA yielded a switch fluorescence ratio of 1.03.
In the case of AAGCTTTAAC, the switch fluorescence ratio is reported as 1.05.
AAGCTTTTTC gave a switch fluorescence ratio of 0.997.
With AAGGAAATAA the switch fluorescence ratio was 0.984.
AAGGAACGTA was tested, and the switch fluorescence ratio was 1.04.
AAGGACACTG showed a switch fluorescence ratio of 1.09.
For AAGGACCGCC, the switch fluorescence ratio was 1.17.
AAGGACTCGG showed a switch fluorescence ratio of 0.982.
For AAGGAGATT, the switch fluorescence ratio was 0.97.
AAGGAGCGCG gave a switch fluorescence ratio of 1.06.
AAGGAGGGTC gave a switch fluorescence ratio of 1.02.
AAGGATTGCT was tested, and the switch fluorescence ratio was 0.961.
With AAGGCACCAG the switch fluorescence ratio was 1.04.
Sequence AAGGCAGTGG has a switch fluorescence ratio of 1.01.
AAGGCATAAG gave a switch fluorescence ratio of 1.06.
Sequence AAGGCCGGCT has a switch fluorescence ratio of 1.11.
AAGGCCTTTT was tested, and the switch fluorescence ratio was 0.991.
In the case of AAGGCGGGAT, the switch fluorescence ratio is reported as 1.07.
With AAGGCGGGTC the switch fluorescence ratio was 0.965.
With AAGGCGGTTC the switch fluorescence ratio was 0.939.
Sequence AAGGCTTATG has a switch fluorescence ratio of 0.993.
In the case of AAGGGAGGAG, the switch fluorescence ratio is reported as 0.982.
With AAGGGAGTGT the switch fluorescence ratio was 0.992.
With AAGGGATACC the switch fluorescence ratio was 1.01.
For AAGGGCACAA, the switch fluorescence ratio was 0.992.
AAGGGCGCTA gave a switch fluorescence ratio of 0.987.
Sequence AAGGGGCCCG has a switch fluorescence ratio of 1.01.
For AAGGGGCTAG, the switch fluorescence ratio was 1.02.
In the case of AAGGGGCTGA, the switch fluorescence ratio is reported as 0.971.
With AAGGGGGA the switch fluorescence ratio was 1.02.
With AAGGGGTAGA the switch fluorescence ratio was 1.03.
AAGGGTCATC was tested, and the switch fluorescence ratio was 0.979.
Work on AAGGTAGGCA yielded a switch fluorescence ratio of 1.01.
In the case of AAGGTATAGA, the switch fluorescence ratio is reported as 0.996.
With AAGGTCAGC the switch fluorescence ratio was 1.02.
In the case of AAGGTCAGGA, the switch fluorescence ratio is reported as 1.02.
AAGGTCGTTG showed a switch fluorescence ratio of 0.993.
Sequence AAGGTGCACT has a switch fluorescence ratio of 1.01.
With AAGGTGGTAT the switch fluorescence ratio was 1.02.
Sequence AAGGTGTTCT has a switch fluorescence ratio of 1.01.
For AAGGTTTAAC, the switch fluorescence ratio was 1.04.
AAGTAACGAC was tested, and the switch fluorescence ratio was 1.03.
With AAGTAATATG the switch fluorescence ratio was 1.01.
In the case of AAGTACGTCA, the switch fluorescence ratio is reported as 1.2.
AAGTACTCGG showed a switch fluorescence ratio of 1.15.
AAGTACTTA was tested, and the switch fluorescence ratio was 1.07.
With AAGTAGGCAA the switch fluorescence ratio was 1.06.
In the case of AAGTCCGCCC, the switch fluorescence ratio is reported as 1.46.
Work on AAGTCCGGTG yielded a switch fluorescence ratio of 1.05.
For AAGTCGAACC, the switch fluorescence ratio was 0.987.
AAGTCGTGTT showed a switch fluorescence ratio of 1.17.
In the case of AAGTCGTTGG, the switch fluorescence ratio is reported as 0.985.
Work on AAGTCTAGAC yielded a switch fluorescence ratio of 0.982.
For AAGTGACAAA, the switch fluorescence ratio was 1.06.
AAGTGCATTC was tested, and the switch fluorescence ratio was 1.03.
AAGTGGAAAC was tested, and the switch fluorescence ratio was 1.01.
For AAGTGGCTGA, the switch fluorescence ratio was 0.986.
AAGTGGGCGG gave a switch fluorescence ratio of 1.
Work on AAGTGGGTGC yielded a switch fluorescence ratio of 1.02.
For AAGTGGTC, the switch fluorescence ratio was 1.01.
Work on AAGTGGTGGC yielded a switch fluorescence ratio of 1.05.
Work on AAGTGTAAGC yielded a switch fluorescence ratio of 0.959.
AAGTGTGTTA showed a switch fluorescence ratio of 1.01.
In the case of AAGTTAAATA, the switch fluorescence ratio is reported as 1.03.
Sequence AAGTTAAGC has a switch fluorescence ratio of 0.927.
Work on AAGTTCGAGG yielded a switch fluorescence ratio of 1.03.
In the case of AAGTTCGCCG, the switch fluorescence ratio is reported as 0.98.
AAGTTCGCGA was tested, and the switch fluorescence ratio was 1.02.
AAGTTGCGCA showed a switch fluorescence ratio of 1.04.
AAGTTGGTAA showed a switch fluorescence ratio of 0.976.
AAGTTGTGCC was tested, and the switch fluorescence ratio was 1.02.
With AAGTTTCCGG the switch fluorescence ratio was 0.973.
AAGTTTGCGA gave a switch fluorescence ratio of 0.994.
In the case of AAGTTTGGGT, the switch fluorescence ratio is reported as 0.974.
Sequence AATAAACATG has a switch fluorescence ratio of 1.04.
For AATAAACCAC, the switch fluorescence ratio was 1.07.
For AATAAACTT, the switch fluorescence ratio was 1.02.
AATAACGGTA gave a switch fluorescence ratio of 1.03.
AATAACTTG gave a switch fluorescence ratio of 0.949.

— the supplement of paper PMC10126150
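Note: ATP exposure 15 min at 22 °C before imaging.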
